# Out of some 310,000 compounds screened, about 14,000 (4.5%) showed an effect of 50% or more. Effects have a minus sign here. The list shows a part of the results.
# Target: human ether-à-go-go-related gene (hERG) potassium channel (human, UniProt Q12809)
# Experiment: primary screen, population patch clamp on CHO cells stably expressing hERG
# 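Further: peak tail current of the secondary pulse compared with the same well before compound.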
# Chain of human ether-à-go-go-related gene (hERG) potassium channel (Q12809 whole entry, looked up): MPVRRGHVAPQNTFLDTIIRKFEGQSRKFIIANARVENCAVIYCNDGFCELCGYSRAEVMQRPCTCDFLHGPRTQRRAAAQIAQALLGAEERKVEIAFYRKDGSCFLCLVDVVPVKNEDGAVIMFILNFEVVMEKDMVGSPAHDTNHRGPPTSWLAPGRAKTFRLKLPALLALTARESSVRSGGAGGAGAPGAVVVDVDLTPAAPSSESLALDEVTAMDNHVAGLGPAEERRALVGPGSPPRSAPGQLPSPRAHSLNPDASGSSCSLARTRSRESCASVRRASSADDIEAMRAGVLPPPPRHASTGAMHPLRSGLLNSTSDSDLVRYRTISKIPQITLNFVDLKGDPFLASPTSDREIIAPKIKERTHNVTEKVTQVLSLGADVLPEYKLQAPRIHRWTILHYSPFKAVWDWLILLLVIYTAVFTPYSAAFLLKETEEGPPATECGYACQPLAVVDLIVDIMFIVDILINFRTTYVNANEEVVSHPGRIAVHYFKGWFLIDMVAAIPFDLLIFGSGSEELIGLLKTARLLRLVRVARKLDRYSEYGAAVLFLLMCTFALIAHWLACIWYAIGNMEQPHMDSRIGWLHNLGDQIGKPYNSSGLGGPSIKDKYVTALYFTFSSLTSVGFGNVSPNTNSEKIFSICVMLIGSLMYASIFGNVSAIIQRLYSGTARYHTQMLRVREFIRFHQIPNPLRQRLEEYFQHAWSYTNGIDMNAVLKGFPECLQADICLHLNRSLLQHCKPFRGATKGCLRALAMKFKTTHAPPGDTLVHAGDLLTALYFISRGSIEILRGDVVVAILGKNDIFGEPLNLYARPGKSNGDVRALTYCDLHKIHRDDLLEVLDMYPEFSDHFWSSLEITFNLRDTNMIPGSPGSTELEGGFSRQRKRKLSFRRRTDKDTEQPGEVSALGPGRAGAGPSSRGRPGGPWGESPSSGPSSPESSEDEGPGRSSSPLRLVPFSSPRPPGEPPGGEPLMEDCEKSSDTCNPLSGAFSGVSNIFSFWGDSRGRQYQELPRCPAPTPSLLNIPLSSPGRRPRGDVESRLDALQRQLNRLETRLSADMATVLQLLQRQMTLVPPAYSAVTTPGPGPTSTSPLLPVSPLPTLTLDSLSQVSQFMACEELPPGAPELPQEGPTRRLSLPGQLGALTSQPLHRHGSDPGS
row,Structure (SMILES),"hERG current change (%, negative = inhibition) at 10uM [%]"
1,COCCn1nnnc1CN1CCN2CCCC2C1.Cl (centres unmarked),3.16
2,COCCn1c(=NC(=O)/C=C/c2ccccc2)sc2cc(NC(C)=O)ccc21,-14.4
3,O=C(NCCOc1ccccc1)C(=O)NCC1CCCO1 (centres unmarked),13.8
4,Cc1nn(-c2ccccc2)c(C)c1/C=C/C(=O)OCC(=O)Nc1ncc(Cl)cc1Cl,-16.9
5,COc1ccc(C)cc1NC(=O)c1cc(S(=O)(=O)N2CCOCC2)cn1C,-3.05
6,CCOC(=O)C(Cc1ccccc1)NS(=O)(=O)c1ccc(NC(C)=O)cc1 (centres unmarked),11.6
7,Cc1ccc2nc(NCc3ccccc3)[nH]c2c1,-36.8
8,CC(C(=O)N1CCC2(CC1)OCCO2)C1Sc2ccccc2NC1=O (centres unmarked),6.9
9,COc1ccc(C[C@@H]2CN3C(=NC[C@@H]3Cc3ccc(O)cc3)N2C[C@H](C)NC(=O)CCC2CCCCC2)cc1,-80.6
10,COc1ccc(Br)cc1/C=N/N1C(=O)CSC1=S,17.3
11,CN(C)C(=O)c1nc2ccc(Cl)cn2c1CN1CCCC(OCc2ccccc2)C1 (centres unmarked),-36.2
12,Cc1occc1-c1n[nH]c(=S)n1C,12.9
13,Cc1ccccc1SCC(=O)N/N=C/c1ccc(F)cc1,8.01
14,COc1cc(/C=N/Nc2nc3ccccc3[nH]2)cc(Br)c1OCC(=O)N(C)C,2.18
15,Cc1noc(C(C)C)c1C(=O)Nc1ccc(-c2nnc3n2CCCCC3)cc1,-4.21
16,C=CCn1c(CNc2ccccc2)nnc1SCC(=O)N/N=C/c1ccccc1O,-16.5
17,CC(C)(C)[C@H]1C=C(C(=O)NCc2ccccc2)O[C@@H](OCCCCO)C1,0.64
18,CCn1c(C)nc2cc(C(=O)N/N=C/c3ccccc3C)ccc21,-12.8
19,Clc1ccccc1CSc1nnc(/C=C/c2ccccc2)o1,11.5
20,Cc1ccc(N(Cc2cc3ccccc3[nH]c2=O)S(=O)(=O)c2ccccc2)cc1,-2.77
21,OCCC1CN(Cc2ccccc2OC2CCCC2)CCN1Cc1ccsc1 (centres unmarked),-68.7
22,Cc1ccc(NC(=O)COC(=O)CNC(=O)c2ccc(Br)cc2)c(C)c1,-14.9

row,Structure (SMILES),"hERG current change (%, negative = inhibition) at 10uM [%]"
1,CN(C)/C=C/C(=O)c1ccc(Cl)s1,-9.03
2,O=C(CSc1nnc2ccccn12)c1ccc(OC(F)F)cc1OC(F)F,-35.1
3,O=C1CCC(=O)N1c1ccccc1-c1ccccc1,13.4
4,Cc1nc(-c2ccc(NC(=O)C(C)(C)C)cc2)c(-c2ccccc2)o1,20.6
5,COC(=O)CN1C(=O)[C@H]2[C@@H](c3ccc(C)o3)N3C(=O)CN(Cc4ccccc4)C(=O)[C@@]3(C)[C@H]2C1=O,5.37
6,COc1cc(C(=O)NCC(c2cccs2)N2CCOCC2)c([N+](=O)[O-])cc1OC (centres unmarked),8.17
7,CN(Cc1ccccc1)C(=O)COC(=O)c1cc(S(=O)(=O)N(C)C)ccc1N1CCCC1,1.93
8,CC1CN(C(=O)N2CCCCC2)CCN1C(=O)N1CCCCC1 (centres unmarked),16.9
9,Cc1ccc(N(CC(=O)Nc2cc(Cl)ccc2Oc2ccccc2)S(C)(=O)=O)c(C)c1,7.88
10,O=C(COc1cccc(NC(=O)c2ccco2)c1)c1ccccc1,-19.8
11,CC(=O)C1=C(O)CC(C)(C)CC1=NCCc1nc2ccccc2[nH]1,7.96
12,C#CCOCCOCCOCCNc1nc(N2CCOCC2)nc(N2CCN(C(=O)[C@H](Cc3cc4ccccc4[nH]3)n3cc([C@@H](N)Cc4ccc(O)cc4)nn3)CC2)n1.Cl,6.43
13,COc1ccc(/C=N/NC(=O)c2nnn(-c3nonc3N)c2-c2cccc(OC)c2)cc1,-43.8
14,CCC(C)(C)n1nnnc1C(c1ccc(OC)c(OC)c1)N1CCN(c2ccc(OC)cc2)CC1.Cl (centres unmarked),-15.9
15,NC(=O)CC(NC(=O)Cc1cccc2ccccc12)c1ccc(NC2CCCCC2)c([N+](=O)[O-])c1 (centres unmarked),1.98
16,CCN(CC(=O)NC1CCS(=O)(=O)C1)S(=O)(=O)c1cc(C)ccc1C (centres unmarked),10.2
17,Cc1ccc(S(=O)(=O)/N=C2/NC(=O)/C(=C/c3cccnc3)S2)cc1,-10.4
18,COc1cccc(-n2c([S-])c(C(=O)Nc3ccc(C(F)(F)F)cc3)[n+]3ccccc23)c1,25.9
19,CC(C)(C)OC(=O)N[C@@H](C(=O)OC(C)(C)C)c1ccc2ccccc2c1,6.86
20,CC1(C)NC(=O)N(CC(=O)OCC(=O)Nc2cc(S(=O)(=O)N3CCCCC3)ccc2Cl)C1=O,-7.39
21,O=C(COc1ccc(Cl)cc1)N1CCN(c2ccc([N+](=O)[O-])c(N3CCOCC3)c2)CC1,-71.5
22,COc1ccc(OC)c(C(c2nnnn2C2CCCC2)N2CCN(c3ccccc3F)CC2)c1.Cl (centres unmarked),-10.9

row,Structure (SMILES),"hERG current change (%, negative = inhibition) at 10uM [%]"
1,CNC(=S)N/N=C/c1cn(CCOc2ccccc2OC)c2ccccc12,-2.61
2,O=C(/C=C/NCc1cccnc1)c1ccc(-c2ccccc2)cc1,2.96
3,Brc1ccc(CSc2ncn[nH]2)cc1,18.6
4,CCOC(=O)/C=C1\SCC(=O)N1CC(=O)NC(C)c1ccc(F)cc1 (centres unmarked),-19.3
5,CC(=O)OC1=Cc2c(ccc3ccc(=O)oc23)OC1(C)C,3.94
6,O=C(Nc1ccc2oc(-c3cccnc3)nc2c1)c1ccco1,-33.2
7,COC(=O)C1=C(C)N(CC2CCCO2)C(=O)/C1=C\c1ccc(O)cc1 (centres unmarked),4.33
8,CCC(CO)NCc1ccc(Br)cc1.Cl (centres unmarked),-2.19
9,COc1ccc(C(C)=O)cc1COC(=O)c1cccnc1Cl,8.32
10,Cc1ccc(-n2c(C)nc3cc(Cl)ccc3c2=O)nc1,15.2
11,COc1ccc2c(Cl)c(C(=O)NC3CCS(=O)(=O)C3)sc2c1 (centres unmarked),-4.73
12,COc1ccc(/C=C2\SC(N)=NC2=O)cc1,13.9
13,CCc1ccc(/C=C2\SC(N3CCOCC3)=NC2=O)cc1,-35.1
14,CCN(CC)C1=CC2=CC(=C(C#N)C#N)CCC2CC1 (centres unmarked),5.24
15,CCCCNS(=O)(=O)c1ccc2nc(SCC(=O)Nc3ccccc3)[nH]c2c1,-9.76
16,O=C(Cc1ccc(F)cc1)NC1CCCCCC1,19.6
17,CCOc1ccc(NC(=S)Nc2cc(-c3ccccc3)[nH]n2)cc1,12.1
18,O=C(COC(=O)c1ccc(Sc2ccccc2)c([N+](=O)[O-])c1)NC1CCS(=O)(=O)C1 (centres unmarked),-83.3
19,O=C(O)c1ccc(Cn2cnc3sc4c(c3c2=O)CCCC4)cc1,18.2
20,Brc1ccc(NC2=Nc3ccccc3CC2)cc1,-8.56
21,Cn1c(SCC(=O)Nc2ccccc2F)nnc1-c1ccc(S(=O)(=O)N2CCOCC2)cc1,-29
22,Cc1cc(C(=O)COC(=O)C2COc3ccccc3O2)c(C)n1CC1CCCO1 (centres unmarked),-9.57

row,Structure (SMILES),"hERG current change (%, negative = inhibition) at 10uM [%]"
1,Cc1cccc(NC(=O)C(C)SCc2nc3sc(C)c(C)c3c(=O)[nH]2)n1 (centres unmarked),3.58
2,CCNC(=O)/N=C1/NC(=O)C(C(C)C)O1 (centres unmarked),24.7
3,CCOC(=O)c1c(C)[nH]c(C(=O)CN2C(=O)NC3(CCCC3)C2=O)c1C,-1.87
4,COc1ccc(C(=O)NCc2nnc(SCC(=O)Nc3ccccc3OC)n2C)cc1,0.403
5,CCOC(=O)c1cnc(N2CCOCC2)[nH]c1=O,26.2
6,O=C(Nc1cccc(Cl)c1)N1CCC(CO)(CCOc2ccccc2)CC1,-58.6
7,COc1ccc(N2CCN(C(=O)CCCn3nnnc3CN3CCOCC3)C(C)C2)cc1 (centres unmarked),-2.99
8,CCOc1ccc(S(=O)(=O)N2CCCCC2)cc1NC(=O)CSCc1c(C)noc1C,-39.5
9,CC1=C(C(=O)Nc2cc(-c3cccc(F)c3)[nH]n2)C2(CCCCC2)OC1=O,4.51
10,CC(C)(C)C(=O)C(Cc1ccccc1Cl)n1cncn1 (centres unmarked),1.87
11,COc1ccc(NC(=O)/C=C/c2cc(OC)c(OC)c(OC)c2)cn1,6.02
12,CCCCCCCCC(NC(=O)c1ccc(C#N)cc1)C(=O)NCCC (centres unmarked),-6.04
13,Cc1cccc(C)c1N1CCN(C(=O)N2CCOCC2)CC1,-3.47
14,CCOc1cc2[nH]c(=O)n(CCC(=O)NCc3ccc(OC)cc3)c(=O)c2cc1OCC,5.71
15,COC(=O)c1ccc(N=C2SCC(=O)N2C)cc1,14.3
16,CCN(CC(=O)NCc1ccccn1)S(=O)(=O)c1ccc(Cl)cc1,-4.93
17,CC(=O)Nc1ccccc1C(=O)C(=O)Nc1ccccc1,9.65
18,CCCCN(C(=O)c1cc(OC)c(OC)c(OC)c1)C1=CC2CCC(C1)N2C.Cl (centres unmarked),-20.2
19,O=C(O)c1ccc2c(c1)C(=O)N(c1ccc(C(=O)OCC(=O)c3ccccc3)cc1)C2=O,23.4
20,Cc1cc(NC(=O)CCN2C(=O)c3ccccc3C2=O)no1,12.6
